# Test results as given in PubChem BioAssay (NCATS).
# Inconclusive results, whose numbers are uncertain, are shown with a selection of clear calls. No potency is given beside an inconclusive call; the fits are too rough. The source made the active and inactive calls. Calls come from the whole dose curve; as a rule, active = well fitted inhibition curve with a large enough effect; inconclusive = small, poorly fitted or top-dose-only effect; inactive = no such curve, though single readings can be large or run the other way.
# Biological target: Rap guanine nucleotide exchange factor 3 (Homo sapiens) (UniProt O95398)
# Assay: Confirmatory qHTS for antagonist of cAMP-regulated guanine nucleotide exchange factor 3 (EPAC1) (AID 1645880); note: nearly all actives have a fitted effect of over 55% in size
# Conditions: EPAC1 Rap1B-BODIPY-GDP exchange, fluorescence; series mostly up to 115 µM
# How it was run: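 Nucleotide exchange uses 100 nM EPAC1, 250 nM RAP1B-BODIPY-GDP and 50 uM GDP, with compounds in a concentration-titration series. After 5 min at room temperature, fluorescence (480 nm ex/540 nm em) is read every 5 min for 30 min. Data are normalized to control ATA and DMSO.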
# Potency is the fitted concentration of half-maximal effect; tags give direction and shape of the fitted curve.
# Sequence of UniProt O95398 (O95398 whole entry, looked up): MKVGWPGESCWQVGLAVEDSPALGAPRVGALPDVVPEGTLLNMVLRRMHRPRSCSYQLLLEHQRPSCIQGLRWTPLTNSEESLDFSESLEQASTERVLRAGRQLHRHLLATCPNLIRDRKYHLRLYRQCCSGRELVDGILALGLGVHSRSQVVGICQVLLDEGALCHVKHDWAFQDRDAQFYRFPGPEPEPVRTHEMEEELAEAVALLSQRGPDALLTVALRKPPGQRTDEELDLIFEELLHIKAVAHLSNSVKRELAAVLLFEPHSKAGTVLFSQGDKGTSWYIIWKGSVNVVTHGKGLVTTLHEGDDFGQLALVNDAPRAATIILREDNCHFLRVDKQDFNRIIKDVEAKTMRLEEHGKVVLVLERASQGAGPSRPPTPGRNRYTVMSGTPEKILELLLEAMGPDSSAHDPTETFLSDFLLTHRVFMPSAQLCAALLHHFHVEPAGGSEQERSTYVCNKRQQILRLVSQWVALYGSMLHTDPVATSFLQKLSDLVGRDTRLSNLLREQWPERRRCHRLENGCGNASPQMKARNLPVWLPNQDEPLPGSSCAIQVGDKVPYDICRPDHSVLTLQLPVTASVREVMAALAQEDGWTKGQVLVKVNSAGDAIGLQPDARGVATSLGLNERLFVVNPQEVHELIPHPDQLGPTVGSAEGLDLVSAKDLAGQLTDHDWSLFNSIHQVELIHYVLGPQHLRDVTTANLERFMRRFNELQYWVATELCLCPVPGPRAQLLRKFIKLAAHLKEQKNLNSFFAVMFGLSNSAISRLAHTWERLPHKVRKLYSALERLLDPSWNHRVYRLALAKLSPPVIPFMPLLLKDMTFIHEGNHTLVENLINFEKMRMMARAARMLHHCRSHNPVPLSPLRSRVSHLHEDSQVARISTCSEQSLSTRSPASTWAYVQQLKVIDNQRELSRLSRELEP
row,SMILES,Potency
1,O=C(Nc1nc(-c2ccc(Cl)cc2)cs1)C1=COCCO1,"inconclusive [inhibitor, full curve, poor fit]"
2,COC(=O)C1=CN(c2ccc(F)cc2)C(N)=C(C#N)C1c1cccc(OC)c1OC (centres undefined),inactive
3,CCCN1C(=O)c2ccccc2NC1c1ccc(OC)c(CSc2ccccn2)c1 (centres undefined),"inconclusive [inhibitor, partial curve, poor fit]"
4,COc1ccc(CC(=O)Nc2nc(-c3cccnc3)cs2)cc1,inactive
5,COc1cccc(C2=NN(C(C)=O)C(c3cccs3)C2)c1 (centres undefined),inactive
6,CC(=O)/C(C#N)=C1\NC(=O)C(Cc2cc(Cl)ccc2Cl)S1 (centres undefined),active: 44.7 µM
7,COC(=O)c1ccc2nc(-c3ccc(Cl)cc3)c(Cc3ccccc3OC)n2c1,"inconclusive [inhibitor, partial curve]"
8,COC(=O)c1ccc2nc(-c3ccc(C)cc3)c(Cc3cccc(F)c3)n2c1,"inconclusive [inhibitor, partial curve]"
9,Cc1cccc(NC(=S)NC(=O)c2oc3ccccc3c2C)n1,inactive
10,CC(=O)Nc1ccc(S(=O)(=O)Nc2nc(-c3ccc(C(C)(C)C)cc3)cs2)cc1,active: 44.7 µM
11,CCOc1ccc(NS(=O)(=O)c2cc3c(cc2C)N(C)CCO3)cc1,inactive
12,CC(C)Cn1nc(NS(=O)(=O)c2cccc3nonc23)c2cc3ccccc3nc21,"inconclusive [inhibitor, partial curve]"
13,CSc1cccc(NC(=O)Cn2nnc(C(=O)NCCc3ccccc3)c2N)c1,"inconclusive [inhibitor, partial curve, poor fit]"
14,Cc1ccc(Cl)cc1NC(=O)C(C)n1nc(-c2ccccc2)ccc1=O (centres undefined),inactive
15,O=C(COc1ccccc1Cl)Nc1cccc(S(=O)(=O)NC2=NCCCCC2)c1,inactive
16,Cc1ccc2oc(=O)n(Cc3ccccc3OC(C)C)c2c1,"inconclusive [inhibitor, partial curve, poor fit]"
17,CCc1cccc(NC(=O)COC(=O)/C=C/c2cccs2)c1,"inconclusive [inhibitor, partial curve, poor fit]"
18,Cc1cc(-c2ccc(C(C)C)c(S(=O)(=O)N3CCC(C)CC3)c2)on1,"inconclusive [inhibitor, partial curve, poor fit]"
19,COC(=O)c1ccccc1NC(=O)Cn1nc(C(F)(F)F)c2c1CCCC2,"inconclusive [inhibitor, partial curve]"
20,O=C(O)C(Cc1c[nH]c2ccccc12)NS(=O)(=O)c1ccc(Cl)c(C(F)(F)F)c1 (centres undefined),"inconclusive [inhibitor, partial curve, poor fit]"

row,SMILES,Potency
1,COc1ccc(C(C#N)=Cc2cccc(OC)c2OC)cc1,inactive
2,COC(=O)C(CC(=O)c1ccc(C)cc1)n1cccn1 (centres undefined),inactive
3,O=C(O)C1CC(=O)N(c2ccc(OCc3c(F)cccc3Cl)cc2)C1 (centres undefined),inactive
4,COC(=O)c1ccc2nc(C3CCCCC3)c(Cc3ccccc3C(F)(F)F)n2c1,"inconclusive [inhibitor, partial curve]"
5,COc1ccccc1OCC(=O)Nc1cc(C(F)(F)F)ccc1-n1cncn1,inactive
6,C=CCN(CC=C)Cc1cc(=O)oc2cc(OC)ccc12,inactive
7,CCCc1cc2c(-c3ccccc3)cc(=O)oc2cc1OCc1ccc(C(=O)O)o1,active: 75.7 µM
8,O=C(CCC(=O)N1CCSc2ccccc21)NCc1cccc(Br)c1,"inconclusive [inhibitor, partial curve, poor fit]"
9,O=C(NCc1ccc(OC(F)(F)F)cc1)C1CC(c2ccccc2C(F)(F)F)=NO1 (centres undefined),"inconclusive [inhibitor, partial curve]"
10,CC(C)(C)c1c(Cl)c(O)c(-c2ccccc2)c(=O)n1-c1ccccc1,active: 23.9 µM
11,O=C(CSc1nnc(CCc2ccccc2)n1-c1ccc(Cl)cc1)NCc1ccccc1,inactive
12,CCc1ccc(-n2c(CCC(=O)O)ccc2-c2cccs2)cc1,"inconclusive [inhibitor, single point]"
13,O=C1OC(c2ccccc2)(c2cc(Br)c(O)c(Br)c2)c2ccccc21 (centres undefined),active: 84.9 µM
14,Cc1ccc(C(=O)ONc2ccc(N=NC(=O)c3ccccc3O)cc2)cc1,active: 7.57 µM
15,O=[N+]([O-])c1cc([N+](=O)[O-])c2oc(-c3ccccc3)c(Br)c2c1O,active: 2.69 µM
16,CC1(C)CC(CCN(Cc2ccccc2)C(=O)c2ccco2)(c2ccccc2)CCO1 (centres undefined),"inconclusive [inhibitor, partial curve, poor fit]"
17,CCCCCCc1ccc(N2C[C@H](Cc3ccccc3)[C@@H](CC(=O)Nc3ccccc3)C2=O)cc1,inactive
18,O=C(N/N=C/c1ccccc1O)/C(=C/c1ccccc1)CCO,"inconclusive [inhibitor, full curve]"
19,COc1ccccc1/C=C1\SC(=S)N(NS(=O)(=O)c2ccccc2)C1=O,active: 16.9 µM
